# In PubChem BioAssay AID1963576 (National Center for Advancing Translational Sciences (NCATS), 2024):
# Hit rate of the full screen: of about 46,000 compounds, about 60 (0.1%) were called active. Inconclusive results (about 3%) are left out. Calls come from the whole dose curve; as a rule, active = well fitted inhibition curve with a large enough effect; inconclusive = small, poorly fitted or top-dose-only effect; inactive = no such curve, though single readings can be large or run the other way. The list shows a part of the results.
# Assay: Primary qHTS assay for Inhibitors of ovarian cancer metastasis using an organotypic tumor microenvironment (TME) model.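 For Potency: count of GFP cancer cells still attached after washing and fixation.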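 For activity change, negative = inhibition: plate controls were DMSO wells for no effect and tomatine positive control wells for full effect.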 Note: nearly all actives have a fitted effect of over 65% in size.
# Conditions: SKOV3ip1-GFP adhesion/invasion on 3D omental model, fluorescence; series mostly up to 45.8 µM; activity change, negative = inhibition: at the top concentration
# Procedure, shortened: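 qHTS, 4-pt dose (0.36-46 umol/L); SKOV3ip1-GFP, 1,200 cells/well, no FBS; primary omental fibroblast/mesothelial co-culture 48 h pre-grown; 2 h RT + 16 h 37 C; PBS wash, 4% PFA; GFP count 488/509 nm.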
# Potency is the fitted concentration of half-maximal effect.
Compound,"activity change, negative = inhibition",outcome,Potency
CCOC(=O)c1c(C)[nH]c(C)c1S(=O)(=O)N1CCCC(C(=O)N2CCN(c3ccccc3F)CC2)C1 (stereo unspecified),inactive: -1.82%,,
CC(C)Nc1ccc(-c2nc(-c3ccncc3)no2)cc1[N+](=O)[O-],,inactive,
COc1ccc(C2=C(Nc3ccc(Br)c(C)c3)c3ccccc3C2=O)cc1,inactive: -25.4%,,
COc1ccc(NC(=O)c2nn(C)c3c2CS(=O)(=O)c2ccccc2-3)cc1Cl,inactive: 0.163%,,
CC1CCN(CC2CCN(C(=O)NCc3ccc(F)cc3)CC2)CC1,inactive: 5.51%,,
O=C(O)c1ccc(Cn2cnc3cccnc32)cc1,,inactive,
COc1ccc(S(=O)(=O)c2cnc3cc(OC)c(OC)cc3c2N2CCCC(C)C2)cc1 (stereo unspecified),inactive: 4.04%,,
CC1CN(C(=O)CCC(=O)NCc2cccc(Cl)c2)c2ccccc2S1 (stereo unspecified),inactive: 4.05%,,
CCOc1ccc(-c2cn3c(n2)sc2cc(C(=O)NCCc4ccc(OC)cc4OC)ccc23)cc1,,inactive,
O=S(=O)(NCCc1csc2nc(-c3ccccc3)nn12)c1cccs1,inactive: -4.69%,,
CC(C)CCOc1ccc(C2N=C(N)Nc3nc4ccccc4n32)cc1 (stereo unspecified),,,active: 12.6 µM
CCc1nc(-c2cc(S(=O)(=O)N3CCN(c4ccc(OC)cc4)CC3)ccc2OC)no1,inactive: -2.16%,,
CCc1ccc(OCc2nc(-c3ccc(-n4cccc4)cc3)no2)cc1,inactive: 0.319%,,
Cc1nn(C(C)C(=O)NC2CCC(C)CC2)c(=O)c2c1sc1ccccc12 (stereo unspecified),,inactive,
C=CC(=O)Nc1ccc2ncnc(Nc3ccc(OCc4cccc(F)c4)c(Cl)c3)c2c1,inactive: -28.5%,,
Cc1ccc(/C=C/c2onc(C)c2S(=O)(=O)N2CCC(C(=O)N3CCN(c4cccc(C)c4)C(C)C3)CC2)cc1 (stereo unspecified),,inactive,
CCOc1ccc(C2C(C(=O)Nc3ccccc3)=C(C)Nc3nc(SCc4cccc(OC)c4)nn32)cc1 (stereo unspecified),inactive: -16.7%,,
Cc1ccc(NC(=O)CCc2c(C)nn(-c3ccc(N4CCOCC4)nn3)c2C)c(C)c1,,inactive,
O=C(COc1ccccc1Cl)Nc1nnc(S(=O)(=O)N2CCCC2)s1,inactive: -8.74%,,
COc1ccc(-n2nc3ccc(NC(=O)c4ccc(C#N)cc4F)cc3n2)cc1Cl,inactive: 14.1%,,
CCCCN(CC)C(=O)CSc1nc2n[nH]c(C)c2c(=N)n1-c1cccc(C)c1,inactive: 5.62%,,
CCOc1ccccc1NC(=O)C(CC(C)C)NC(=O)C1CCC(C)CC1 (stereo unspecified),inactive: 0.731%,,
COc1cccc2c1cc1c(=O)n(CC(=O)N3CCN(c4cccc(C(F)(F)F)c4)CC3)nc(C)n12,,inactive,
CCOc1ccc(NC2SC(=O)N(Cc3ccccc3)C2=O)cc1 (stereo unspecified),inactive: -8.1%,,
COc1cccc2sc(NC(=O)CS(=O)(=O)c3ccc(C)cc3)nc12,,inactive,
O=c1[nH]c(=O)n([C@H]2C[C@@H](O)[C@@H](CO)O2)cc1C(F)(F)F,inactive: -1.91%,,
